# Assay results published in the supplement of paper PMC8728848.
# The list shows a part of the results.
# B1: PV12658A-bvu-496-32-496 (Bacteroides vulgatus) (protein)
# chain: DLDGAITTPAAVELALNGIYYSLPGNGFNVIFPTVSGSFKAGTMWRQEIVSAGNAVYYSERMLPTLSFSDATEWDADYAVIKNANFLETACNRMSDGEFSGNRRAEVLGEIAYLRALAYFNILVRYCEFWDMNSEYGVVMRNEAPSVSNALKARSSVADSYQYILDQLEIAIEKAPDWKKLSQASKEAAKALKARVLLYAGKYTEAVAAVNDAIDTNSPLPEANYGDVFDKFSTTKEILFARVFDQKDATNTSTRQQCYGNSPTKKQGYWGPTNEYVELVGDDPRADAIFSKVDSLMDSRSSAVAYNLKSVKKLLNDANDMPVIFSRVSELYLIKAEALYRSGASISEAYAPIRKLRERAGAEIILPANNEELETAIFNEWMLELSFENWHEWFAMIRFAGYTEKPDFTRLLALNKTLREALEKEYEKSEAQGDNYYQRIIDRRIDAIPSSEISSNLECKQNPGY
# Assays:
# Experiment in all cases: glycan array binding signal (z-score within array); higher = stronger binding
# Conditions in all cases: glycan notation: IUPAC condensed, linker removed
# [1] = biological target: GlcNAc(b1-3)Man
# In short: (§1)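 The binding signal is a Z-score computed within each array. Data were drawn from 3228 arrays in the Consortium for Functional Glycomics database, restricted to those with a known protein sequence. Scores were averaged over arrays of the same protein sequence at different concentrations or buffers, and over linkers, and negative values can be taken as non-binding.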
# [2] = biological target: GlcNAc(b1-3)[GlcNAc(b1-4)][GlcNAc(b1-6)]GlcNAc
# In short: as §1
# [3] = biological target: GlcNAc(b1-3)[GlcNAc(b1-6)]Gal(b1-4)GlcNAc
# In short: as §1
# [4] = biological target: GlcNAc(b1-3)[GlcNAc(b1-6)]GalNAc
# In short: as §1
# [5] = biological target: GlcNAc(b1-4)Gal(b1-4)GlcNAc
# In short: as §1
# [6] = biological target: GlcNAc(b1-4)GlcNAc
# In short: as §1
# [7] = biological target: GlcNAc(b1-4)GlcNAc(b1-4)GlcNAc
# In short: as §1
# [8] = biological target: GlcNAc(b1-4)GlcNAc(b1-4)GlcNAc(b1-4)GlcNAc(b1-4)GlcNAc
# In short: as §1
# [9] = biological target: GlcNAc(b1-4)GlcNAc(b1-4)GlcNAc(b1-4)GlcNAc(b1-4)GlcNAc(b1-4)GlcNAc
# In short: as §1
# [10] = biological target: GlcNAc(b1-4)[GlcNAc(b1-6)]GalNAc
# In short: as §1
# [11] = biological target: GlcNAc(b1-6)Gal(b1-4)GlcNAc
# In short: as §1
# [12] = biological target: GlcNAc(b1-6)GalNAc
# In short: as §1
# [13] = biological target: GlcNAc6S(b1-3)Gal(b1-4)GlcNAc
# In short: as §1
# [14] = biological target: Kdn(a2-3)Gal(b1-3)GalNAc
# In short: as §1
# [15] = biological target: Kdn(a2-3)Gal(b1-3)GlcNAc
# In short: as §1
# [16] = biological target: Kdn(a2-3)Gal(b1-4)Glc
# In short: as §1
# [17] = biological target: Kdn(a2-3)Gal(b1-4)GlcNAc
# In short: as §1
# [18] = biological target: Kdn(a2-3)Gal(b1-4)[Fuc(a1-3)]GlcNAc
# In short: as §1
# [19] = biological target: Kdn(a2-6)Gal(b1-4)GlcNAc
# In short: as §1
# [20] = biological target: Man(a1-2)Man(a1-2)Man(a1-3)Man
# In short: as §1
# [21] = biological target: Man(a1-2)Man(a1-2)Man(a1-6)[Man(a1-3)]Man
# In short: as §1
# [22] = biological target: Man(a1-2)Man(a1-3)Man
# In short: as §1
# [23] = biological target: Man(a1-2)Man(a1-3)[Man(a1-2)Man(a1-6)]Man
# In short: as §1
# [24] = biological target: Man(a1-2)Man(a1-3)[Man(a1-2)Man(a1-6)]Man(a1-6)[Man(a1-2)Man(a1-2)Man(a1-3)]Man
# In short: as §1
# [25] = biological target: Man(a1-2)Man(a1-3)[Man(a1-2)Man(a1-6)]Man(a1-6)[Man(a1-2)Man(a1-2)Man(a1-3)]Man(b1-4)GlcNAc(b1-4)GlcNAc
# In short: as §1
# [26] = biological target: Man(a1-2)Man(a1-3)[Man(a1-6)]Man(a1-6)[Man(a1-2)Man(a1-3)]Man(b1-4)GlcNAc(b1-4)GlcNAc
# In short: as §1
# [27] = biological target: Man(a1-2)Man(a1-6)[Man(a1-3)]Man(a1-6)[Man(a1-2)Man(a1-2)Man(a1-3)]Man
# In short: as §1
# [28] = biological target: Man(a1-2)Man(a1-6)[Man(a1-3)]Man(a1-6)[Man(a1-2)Man(a1-2)Man(a1-3)]Man(b1-4)GlcNAc(b1-4)GlcNAc
# In short: as §1
# [29] = biological target: Man(a1-3)[Man(a1-6)]Man
# In short: as §1
# [30] = biological target: Man(a1-3)[Man(a1-6)]Man(a1-6)[Man(a1-2)Man(a1-3)]Man(b1-4)GlcNAc(b1-4)GlcNAc
# In short: as §1
# [31] = biological target: Man(a1-3)[Man(a1-6)]Man(a1-6)[Man(a1-3)]Man
# In short: as §1
# [32] = biological target: Man(a1-3)[Man(a1-6)]Man(a1-6)[Man(a1-3)]Man(b1-4)GlcNAc(b1-4)GlcNAc
# In short: as §1
# [33] = biological target: Man(a1-3)[Man(a1-6)]Man(b1-4)GlcNAc(b1-4)GlcNAc
# In short: as §1
# [34] = biological target: Man(a1-3)[Man(a1-6)]Man(b1-4)GlcNAc(b1-4)[Fuc(a1-6)]GlcNAc
# In short: as §1
# [35] = biological target: Man(a1-6)Man
# In short: as §1
# [36] = biological target: Man(b1-4)GlcNAc
# In short: as §1
# [37] = biological target: MurNAc(b1-4)GlcNAc
# In short: as §1
# [38] = biological target: Neu5Ac(a2-3)Gal
# In short: as §1
binder,measurement,setting,value
B1,glycan array binding signal (z-score),[1],-0.414
same,glycan array binding signal (z-score),[2],-0.459
same,glycan array binding signal (z-score),[3],-0.286
same,glycan array binding signal (z-score),[4],-0.243
same,glycan array binding signal (z-score),[5],-0.358
same,glycan array binding signal (z-score),[6],-0.141
same,glycan array binding signal (z-score),[7],-0.297
same,glycan array binding signal (z-score),[8],-0.447
same,glycan array binding signal (z-score),[9],-0.318
same,glycan array binding signal (z-score),[10],-0.506
same,glycan array binding signal (z-score),[11],-0.432
same,glycan array binding signal (z-score),[12],-0.328
same,glycan array binding signal (z-score),[13],-0.272
same,glycan array binding signal (z-score),[14],-0.441
same,glycan array binding signal (z-score),[15],-0.137
same,glycan array binding signal (z-score),[16],-0.366
same,glycan array binding signal (z-score),[17],0.085
same,glycan array binding signal (z-score),[18],-0.226
same,glycan array binding signal (z-score),[19],-0.399
same,glycan array binding signal (z-score),[20],-0.554
same,glycan array binding signal (z-score),[21],-0.397
same,glycan array binding signal (z-score),[22],-0.147
same,glycan array binding signal (z-score),[23],-0.369
same,glycan array binding signal (z-score),[24],-0.122
same,glycan array binding signal (z-score),[25],-0.415
same,glycan array binding signal (z-score),[26],-0.364
same,glycan array binding signal (z-score),[27],-0.356
same,glycan array binding signal (z-score),[28],-0.073
same,glycan array binding signal (z-score),[29],-0.395
same,glycan array binding signal (z-score),[30],0.048
same,glycan array binding signal (z-score),[31],0.601
same,glycan array binding signal (z-score),[32],0.012
same,glycan array binding signal (z-score),[33],-0.379
same,glycan array binding signal (z-score),[34],-0.368
same,glycan array binding signal (z-score),[35],0.173
same,glycan array binding signal (z-score),[36],0.232
same,glycan array binding signal (z-score),[37],-0.29
same,glycan array binding signal (z-score),[38],-0.374
